Source: PubChem BioAssay AID1476 (National Center for Advancing Translational Sciences (NCATS), 2009)
Among all 200,000 compounds or so, about 4,500 (2.2%) were called active. The shares of active, inactive and inconclusive entries below differ from those in the screen. Calls follow the shape of the dose curve; as a rule, active = well fitted inhibition curve with a large enough effect; inconclusive = small, poorly fitted or top-dose-only effect, or effect the other way; inactive = flat fitted curve, though single readings scatter. Where the call is inconclusive, the potency comes from a doubtful curve fit. More than one record can exist for a structure, and the calls need not agree.

Biological target: Cruzipain (Trypanosoma cruzi) (UniProt P25779)
Sequence of UniProt P25779 (P25779 whole entry, looked up): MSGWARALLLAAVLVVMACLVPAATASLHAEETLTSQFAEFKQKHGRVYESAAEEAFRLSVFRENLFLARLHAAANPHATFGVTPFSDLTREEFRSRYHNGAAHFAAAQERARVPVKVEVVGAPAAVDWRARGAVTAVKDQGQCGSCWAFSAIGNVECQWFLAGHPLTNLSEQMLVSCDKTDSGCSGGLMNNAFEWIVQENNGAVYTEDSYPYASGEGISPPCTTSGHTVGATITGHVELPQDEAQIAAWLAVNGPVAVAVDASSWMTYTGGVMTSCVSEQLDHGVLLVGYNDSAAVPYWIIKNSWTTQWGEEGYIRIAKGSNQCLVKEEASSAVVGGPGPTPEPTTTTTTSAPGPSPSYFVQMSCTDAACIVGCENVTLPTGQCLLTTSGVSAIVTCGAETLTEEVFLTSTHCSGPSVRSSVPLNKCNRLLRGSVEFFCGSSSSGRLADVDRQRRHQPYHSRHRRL
Test: qHTS Assay for Promiscuous and Specific Inhibitors of Cruzain (without detergent); also: nearly all actives have a fitted effect of over 40% in size;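 as to max response, negative = inhibition: plate controls were enzyme without inhibitor for no effect and buffer without enzyme for full effect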
Details: purified cruzain, Z-FR-AMC fluorescence, no detergent
Method in brief: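 Detergent-free condition (0.00005% Triton X-100) in acetate buffer pH 5.5 with DTT. 1.5 nM enzyme and compound were pre-mixed 15 min, then 2 uM Z-FR-AMC substrate added; reaction progress from fluorescence change between first and third reads (60 s).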
Potency is read from the fitted curve at half-maximal effect; tags tell the direction and shape of the fitted curve.

SMILES	Potency	max response, negative = inhibition
O=C(N/N=C\C=C\c1ccc2c(c1)OCO2)C1COc2ccccc2O1 (stereo unspecified)	inconclusive: 39.8 µM [inhibitor, single point]	
O=C(N/N=C/c1ccccc1[N+](=O)[O-])c1ccc(COc2ccccc2-c2ccccc2)cc1	active: 12.6 µM	
Nc1nc(SCc2ccccc2Cl)nc2nc3c(cc12)CCCC3		inactive: 3.74%
CCOC(=O)c1cnc(SCC(=O)Nc2nnc(CC)s2)nc1N		inactive: -2.49%
C/C(Cl)=C/CSc1nc2c(c(=O)[nH]c(=O)n2C)n1C(C)C		inactive: 4.11%
Cc1n[nH]c(C)c1S(=O)(=O)N(CC(=O)NC1CCCC1)c1ccc(C(C)C)cc1	inconclusive: 25.1 µM [activator, single point]	
Cc1[nH]c2ccccc2c1CCNC(=O)c1ccc2c(c1[N+](=O)[O-])C(=O)c1ccccc1C2=O	active: 10 µM	
CCCCOc1ccc(C2=NC(c3ccccc3)=Nc3ccc(OC)cc3N2)cc1		inactive: 6.76%
CN(C)c1ccc(C(=C2C=CC(=[N+](C)C)C=C2)c2ccccc2)cc1	active: 25.1 µM	
Cc1ccc(C(=O)c2coc3c2C(=O)C(=O)c2ccccc2-3)cc1	active: 12.6 µM	
O=C(Nc1ccc(-c2nc3cccnc3s2)cc1)c1ccc(Br)o1	inconclusive: 39.8 µM [inhibitor, single point]	
Cc1ccc(CN(Cc2ccco2)C(=O)c2oc3c(C)c(C)ccc3c2C)cc1	active: 25.1 µM	
COc1ccc([N+](=O)[O-])cc1NC(=O)C(C)Sc1nc(C)c(C)c(C)n1 (stereo unspecified)	inconclusive: 39.8 µM [activator, single point]	
COCCn1c(=O)c(-c2ccccc2)nc2cnc(N3CCN(C)CC3)nc21	inconclusive: 39.8 µM [inhibitor, single point]	
CCOC(=O)c1c(C)sc(-c2c(-c3ccc(OC)c(F)c3)[nH]c3c2c(=O)[nH]c(=O)n3C)c1O	inconclusive: 6.31 µM [activator, single point]	
CCN1C(=O)c2cccc3c(S(=O)(=O)N(C(=O)c4cccnc4)c4ccc(OC)cc4)ccc1c23	inconclusive: 39.8 µM [activator, single point]	
CCOc1ccc(-c2nn3c(-c4ccccc4)nnc3s2)cc1	inconclusive: 39.8 µM [activator, single point]	
CCCN(CCC)CC(O)Cn1cc(/C=C/C(=O)c2ccc(OCC)cc2)c2ccccc21 (stereo unspecified)		inactive: 0.335%
O=C(c1cccc(F)c1)N1CCN(C(=O)c2cc(-c3ccc(Cl)cc3Cl)on2)CC1	inconclusive: 25.1 µM [activator, single point]	
COc1ccc(Nc2nc(N)nc(CSc3nc4cc(OC)ccc4s3)n2)cc1	inconclusive: 5.01 µM [activator, full curve]	
CCOC(=O)CSc1nc(NC#N)nc(N(CC)CC)n1	inconclusive: 12.6 µM [inhibitor, partial curve]	

SMILES	Potency	max response, negative = inhibition
Cc1cc(C)c(NC(=O)COc2ccccc2C(=O)Nc2ccc3c(c2)oc2ccccc23)c(C)c1	active: 5.01 µM	
CCc1ccc(NC(=O)C(=O)NCC(c2cccnc2)N2CCOCC2)cc1 (stereo unspecified)	inconclusive: 31.6 µM [activator, single point]	
COc1cc(C/C=C\c2ccccc2)c(OC)cc1O		inactive: 1.03%
O=C(/C(=C(\[O-])c1ccccc1)[n+]1ccc2ccccc2c1)c1ccc(Cl)cc1	active: 25.1 µM	
COC(=O)c1ccc(OCC2c3cc(OC)c(OC)cc3CCN2C(=O)c2ccccc2F)cc1 (stereo unspecified)	inconclusive: 39.8 µM [activator, single point]	
Cc1ccc(C)c(N2CCN(C(=O)C(C)n3c(C)c4cnn(-c5ccccc5)c(=O)c4c3C)CC2)c1 (stereo unspecified)		inactive: -3.52%
COc1ccc(Cl)cc1N(C)C(=O)C(=O)Nc1ccc2nc3n(c(=O)c2c1)CCCCC3	inconclusive: 31.6 µM [activator, single point]	
COc1cc(/C=C/C(=O)Nc2nc3ccc(S(=O)(=O)NC(C)C)cc3s2)cc(OC)c1OC	inconclusive: 15.8 µM [activator, partial curve]	
CCC(=O)Nc1ccc(C(=O)CSc2nc3ccccc3[nH]2)cc1	inconclusive: 10 µM [inhibitor, partial curve]	
CCOC(=O)c1[nH]c2ccc(OC)cc2c1NC(=O)c1ccc(OC)c(OC)c1	inconclusive: 31.6 µM [activator, single point]	
COc1ccccc1C1C=C(c2ccc(Cl)cc2)Nc2nc(-c3ccc(Cl)cc3)nn21 (stereo unspecified)		inactive: 13.6%
O=C1c2oc3ccc(Cl)cc3c(=O)c2C(c2cccc(Br)c2)N1CCO (stereo unspecified)	inconclusive: 31.6 µM [activator, single point]	
O=C(Nc1nc2c(s1)CCCC2)c1cc(-c2ccc3c(c2)OCO3)nc2ccccc12	active: 5.01 µM	
CCc1ccc(NC(=O)CN(Cc2ccccc2)S(=O)(=O)c2ccc3nc(C)sc3c2)cc1	inconclusive: 20 µM [activator, single point]	
O=c1cc(NCc2ccc3c(c2)OCO3)[nH]c(=O)n1-c1ccc(Cl)cc1	inconclusive: 25.1 µM [inhibitor, single point]	
COc1ccc(C[C@@H]2C(=O)N[C@H](C)C(=O)N(C)[C@@H]3Cc4ccc(cc4)Oc4cc(ccc4O)C[C@H](C(=O)N[C@@H](C)C(=O)N[C@H](C)C(=O)N2C)N(C)C3=O)cc1	inconclusive: 6.31 µM [activator, single point]	
c1ccc(COc2ccc(Oc3nc(N4CCCCC4)nc(N4CCOCC4)n3)nn2)cc1	inconclusive: 31.6 µM [activator, single point]	
Cc1ccc(NC(=O)Cn2c(-c3nonc3N)nc3ccccc32)cc1Cl	active: 7.94 µM	
COc1ccc(N(CC(=O)NCCSC2CCCCC2)S(C)(=O)=O)c(OC)c1	inconclusive: 39.8 µM [activator, single point]	
N#C/C(=C/c1ccc(Sc2nc3ccccc3[nH]2)o1)c1cccc(F)c1	inconclusive: 39.8 µM [inhibitor, single point]	
